Source: ChEMBL document CHEMBL5634115, “Exploring novel anticancer pyrazole benzenesulfonamides featuring tail approach strategy as carbonic anhydrase inhibitors” (Eur J Med Chem, 2023)

Experiments:
NCI-H23 = assay: cells; type: functional; settings: Homo sapiens, time 48 hrs
NCI-H460 [1] = assay: cells; type: functional; settings: Homo sapiens, time 48 hrs
HCC 2998 = assay: cells; type: functional; settings: Homo sapiens, time 48 hrs
HCT-15 [2] = assay: cells; type: functional; settings: Homo sapiens, time 48 hrs
HT-29 [3] = assay: cells; type: functional; settings: Homo sapiens, time 48 hrs
SF-295 = assay: cells; type: functional; settings: Homo sapiens, time 48 hrs
SF-539 [4] = assay: cells; type: functional; settings: Homo sapiens, time 48 hrs
SK-MEL-28 [5] = assay: cells; type: functional; settings: Homo sapiens, time 48 hrs
SK-OV-3 [6] = assay: cells; type: functional; settings: Homo sapiens, time 48 hrs
MCF7 = assay: cells; type: functional; settings: Homo sapiens, time 48 hrs
T47D = assay: cells; type: functional; settings: Homo sapiens, time 48 hrs
NCI-H460 [7] = assay: cells; type: functional; settings: Homo sapiens, time 48 hrs; remark: listed apart in the source
HCT-116 = assay: cells; type: functional; settings: Homo sapiens, time 48 hrs
HCT-15 [8] = assay: cells; type: functional; settings: Homo sapiens, time 48 hrs; remark: listed apart in the source
HT-29 [9] = assay: cells; type: functional; settings: Homo sapiens, time 48 hrs; remark: listed apart in the source
SW-620 = assay: cells; type: functional; settings: Homo sapiens, time 48 hrs
SF-539 [10] = assay: cells; type: functional; settings: Homo sapiens, time 48 hrs; remark: listed apart in the source
SNB-75 = assay: cells; type: functional; settings: Homo sapiens, time 48 hrs
U-251 = assay: cells; type: functional; settings: Homo sapiens, time 48 hrs
SK-MEL-2 = assay: cells; type: functional; settings: Homo sapiens, time 48 hrs
SK-MEL-28 [11] = assay: cells; type: functional; settings: Homo sapiens, time 48 hrs; remark: listed apart in the source
SK-MEL-5 = assay: cells; type: functional; settings: Homo sapiens, time 48 hrs
UACC-257 [12] = assay: cells; type: functional; settings: Homo sapiens, time 48 hrs
IGROV-1 = assay: cells; type: functional; settings: Homo sapiens, time 48 hrs
OVCAR-5 [13] = assay: cells; type: functional; settings: Homo sapiens, time 48 hrs
NCI/ADR-RES = assay: cells; type: functional; settings: Homo sapiens, time 48 hrs
SK-OV-3 [14] = assay: cells; type: functional; settings: Homo sapiens, time 48 hrs; remark: listed apart in the source
A498 = assay: cells; type: functional; settings: Homo sapiens, time 48 hrs
CAKI-1 = assay: cells; type: functional; settings: Homo sapiens, time 48 hrs
RXF 393 [15] = assay: cells; type: functional; settings: Homo sapiens, time 48 hrs
TK-10 = assay: cells; type: functional; settings: Homo sapiens, time 48 hrs
Hs-578T = assay: cells; type: functional; settings: Homo sapiens, time 48 hrs
Carbonic anhydrase 12 = Carbonic anhydrase 12 (Homo sapiens, UniProt O43570)
CCRF-CEM = assay: cells; settings: Homo sapiens, 48 h, read-out: LC50
MOLT-4 = assay: cells; settings: Homo sapiens, MOLT-4, 48 h, read-out: LC50
A549 = assay: cells; settings: Homo sapiens, A549, 48 h, read-out: LC50
EKVX = assay: cells; settings: Homo sapiens, 48 h, read-out: LC50
KM12 = assay: cells; settings: Homo sapiens, KM12, 48 h, read-out: LC50
SF-268 = assay: cells; settings: Homo sapiens, SF-268, 48 h, read-out: LC50
SF-539 [16] = assay: cells; settings: Homo sapiens, SF-539, 48 h, read-out: LC50
LOX IMVI = assay: cells; settings: Homo sapiens, 48 h, read-out: LC50
Malme-3M = assay: cells; settings: Homo sapiens, 48 h, read-out: LC50
M14 = assay: cells; settings: Homo sapiens, M14, 48 h, read-out: LC50
MDA-MB-435 = assay: cells; settings: Homo sapiens, MDA-MB-435, 48 h, read-out: LC50
UACC-257 [17] = assay: cells; settings: Homo sapiens, UACC-257, 48 h, read-out: LC50
UACC-62 = assay: cells; settings: Homo sapiens, UACC-62, 48 h, read-out: LC50
OVCAR-3 = assay: cells; settings: Homo sapiens, OVCAR-3, 48 h, read-out: LC50
OVCAR-4 = assay: cells; settings: Homo sapiens, OVCAR-4, 48 h, read-out: LC50
OVCAR-5 [18] = assay: cells; settings: Homo sapiens, OVCAR-5, 48 h, read-out: LC50
786-0 = assay: cells; settings: Homo sapiens, 786-0, 48 h, read-out: LC50
RXF 393 [19] = assay: cells; settings: Homo sapiens, RXF 393, 48 h, read-out: LC50
PC-3 = assay: cells; settings: Homo sapiens, PC-3, 48 h, read-out: LC50
[20] = test system: Panel NCI-60 (60 carcinoma cell lines); assay: cells; settings: Homo sapiens, 48 h, read-out: GI
NCI-H522 = assay: cells; settings: Homo sapiens, NCI-H522, 48 h, read-out: LC50

Sequence of Carbonic anhydrase 12 (O43570 whole entry): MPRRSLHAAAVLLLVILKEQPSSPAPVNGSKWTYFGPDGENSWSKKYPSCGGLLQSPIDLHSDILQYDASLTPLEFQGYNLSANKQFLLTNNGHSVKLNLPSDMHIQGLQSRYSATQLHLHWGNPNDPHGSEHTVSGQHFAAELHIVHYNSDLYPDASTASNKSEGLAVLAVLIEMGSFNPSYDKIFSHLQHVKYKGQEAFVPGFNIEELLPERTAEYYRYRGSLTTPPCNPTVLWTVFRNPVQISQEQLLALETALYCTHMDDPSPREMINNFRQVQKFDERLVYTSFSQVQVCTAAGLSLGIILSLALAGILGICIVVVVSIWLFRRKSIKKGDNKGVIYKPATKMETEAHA

## NS(=O)(=O)c1ccc(-n2cc(/C=N/Nc3ccc(C(=O)O)cc3)c(-c3ccccc3)n2)cc1
NCI-H23
  GI50: 3.39 µM
NCI-H460 [1]
  GI50: 2.46 µM
HCC 2998
  GI50: 2.09 µM
HCT-15 [2]
  GI50: 1.78 µM
HT-29 [3]
  GI50: 4.25 µM
SF-295
  GI50: 3.37 µM
SF-539 [4]
  GI50: 1.83 µM
SK-MEL-28 [5]
  GI50: 4.53 µM
SK-OV-3 [6]
  GI50: 12.6 µM
MCF7
  GI50: 2.1 µM
T47D
  GI50: 5.99 µM
NCI-H460 [7]
  TGI: 6.03 µM
HCT-116
  TGI: 10.5 µM
HCT-15 [8]
  TGI: 3.82 µM
HT-29 [9]
  TGI: 15.7 µM
SW-620
  TGI: 10.7 µM
SF-539 [10]
  TGI: 4.01 µM
SNB-75
  TGI: 27.4 µM
U-251
  TGI: 20.6 µM
SK-MEL-2
  TGI: 11.8 µM
SK-MEL-28 [11]
  TGI: 17.3 µM
SK-MEL-5
  TGI: 4.07 µM
UACC-257 [12]
  TGI: 31.4 µM
IGROV-1
  TGI: 21.3 µM
OVCAR-5 [13]
  TGI: 18 µM
NCI/ADR-RES
  TGI: 6.34 µM
SK-OV-3 [14]
  TGI: 99.7 µM
A498
  TGI: 51.3 µM
CAKI-1
  TGI: 11.9 µM
RXF 393 [15]
  TGI: 4.49 µM
TK-10
  TGI: 71.7 µM
Hs-578T
  TGI: 8.8 µM
Carbonic anhydrase 12
  IC50: 0.247 µM
CCRF-CEM
  CC50: > 100 µM
MOLT-4
  CC50: > 100 µM
A549
  CC50: > 100 µM
EKVX
  CC50: > 100 µM
KM12
  CC50: 7.64 µM
SF-268
  CC50: > 100 µM
SF-539 [16]
  CC50: 8.75 µM
LOX IMVI
  CC50: 5.57 µM
Malme-3M
  CC50: 45.1 µM
M14
  CC50: 21.7 µM
MDA-MB-435
  CC50: 17.9 µM
UACC-257 [17]
  CC50: 69.7 µM
UACC-62
  CC50: 45.1 µM
OVCAR-3
  CC50: 23.8 µM
OVCAR-4
  CC50: > 100 µM
OVCAR-5 [18]
  CC50: 56.5 µM
786-0
  CC50: > 100 µM
RXF 393 [19]
  CC50: 9.62 µM
PC-3
  CC50: > 100 µM
[20]
  inhibition of growth at 10 µM: 26%

## CCOC(=O)c1ccc(N/N=C/c2cn(-c3ccc(S(N)(=O)=O)cc3)nc2-c2ccc(OC)cc2)cc1
NCI-H23
  GI50: 3.41 µM
NCI-H460 [1]
  GI50: 2.71 µM
HCC 2998
  GI50: 2.07 µM
HCT-15 [2]
  GI50: 2.5 µM
HT-29 [3]
  GI50: 3.51 µM
SF-295
  GI50: 4.3 µM
SF-539 [4]
  GI50: 1.84 µM
SK-MEL-28 [5]
  GI50: 4.78 µM
SK-OV-3 [6]
  GI50: 8.18 µM
MCF7
  GI50: 2.13 µM
T47D
  GI50: 3.64 µM
NCI-H460 [7]
  TGI: 7.39 µM
HCT-116
  TGI: 14.4 µM
HCT-15 [8]
  TGI: 8.35 µM
HT-29 [9]
  TGI: 13.6 µM
SW-620
  TGI: > 100 µM
SF-539 [10]
  TGI: 3.81 µM
SNB-75
  TGI: 9.2 µM
U-251
  TGI: > 100 µM
SK-MEL-2
  TGI: 23.9 µM
SK-MEL-28 [11]
  TGI: 74.4 µM
SK-MEL-5
  TGI: 3.49 µM
IGROV-1
  TGI: 55.7 µM
OVCAR-5 [13]
  TGI: 17 µM
NCI/ADR-RES
  TGI: 7.2 µM
SK-OV-3 [14]
  TGI: > 100 µM
A498
  TGI: 96.9 µM
CAKI-1
  TGI: > 100 µM
RXF 393 [15]
  TGI: 3.77 µM
TK-10
  TGI: > 100 µM
Hs-578T
  TGI: 8.08 µM
Carbonic anhydrase 12
  IC50: 1.96 µM
CCRF-CEM
  CC50: > 100 µM
MOLT-4
  CC50: > 100 µM
A549
  CC50: > 100 µM
EKVX
  CC50: > 100 µM
NCI-H522
  CC50: > 100 µM
SF-268
  CC50: > 100 µM
SF-539 [16]
  CC50: 7.89 µM
Malme-3M
  CC50: 74.4 µM
M14
  CC50: > 100 µM
MDA-MB-435
  CC50: > 100 µM
UACC-257 [17]
  CC50: > 100 µM
UACC-62
  CC50: > 100 µM
OVCAR-3
  CC50: 92 µM
OVCAR-4
  CC50: > 100 µM
OVCAR-5 [18]
  CC50: 90.1 µM
786-0
  CC50: 47.3 µM
RXF 393 [19]
  CC50: 7.27 µM
PC-3
  CC50: > 100 µM

## CCOC(=O)c1ccc(N/N=C/c2cn(-c3ccc(S(N)(=O)=O)cc3)nc2-c2ccccc2)cc1
NCI-H23
  GI50: 2.26 µM
NCI-H460 [1]
  GI50: 2.23 µM
HCC 2998
  GI50: 1.83 µM
HCT-15 [2]
  GI50: 1.57 µM
HT-29 [3]
  GI50: 2.18 µM
SF-295
  GI50: 2.15 µM
SF-539 [4]
  GI50: 1.73 µM
SK-MEL-28 [5]
  GI50: 2.57 µM
SK-OV-3 [6]
  GI50: 4.15 µM
MCF7
  GI50: 2.1 µM
T47D
  GI50: 3.07 µM
NCI-H460 [7]
  TGI: 5.22 µM
HCT-116
  TGI: 6.75 µM
HCT-15 [8]
  TGI: 3.28 µM
HT-29 [9]
  TGI: 5.13 µM
SW-620
  TGI: 6.8 µM
SF-539 [10]
  TGI: 3.49 µM
SNB-75
  TGI: 6.88 µM
U-251
  TGI: 9.9 µM
SK-MEL-2
  TGI: 7.11 µM
SK-MEL-28 [11]
  TGI: 8.37 µM
SK-MEL-5
  TGI: 3.01 µM
UACC-257 [12]
  TGI: 2.07 µM
IGROV-1
  TGI: 13.9 µM
OVCAR-5 [13]
  TGI: 5.14 µM
NCI/ADR-RES
  TGI: 5.15 µM
SK-OV-3 [14]
  TGI: 54.9 µM
A498
  TGI: 5.29 µM
CAKI-1
  TGI: 8.34 µM
RXF 393 [15]
  TGI: 3.67 µM
TK-10
  TGI: 76.7 µM
Hs-578T
  TGI: 6.06 µM
Carbonic anhydrase 12
  IC50: 0.885 µM
CCRF-CEM
  CC50: > 100 µM
MOLT-4
  CC50: > 100 µM
A549
  CC50: > 100 µM
EKVX
  CC50: > 100 µM
NCI-H522
  CC50: > 100 µM
KM12
  CC50: 7.78 µM
SF-268
  CC50: > 100 µM
SF-539 [16]
  CC50: 7.03 µM
LOX IMVI
  CC50: 5.45 µM
Malme-3M
  CC50: 14.7 µM
M14
  CC50: 37.6 µM
MDA-MB-435
  CC50: 9.44 µM
UACC-257 [17]
  CC50: 60.8 µM
UACC-62
  CC50: 38.3 µM
OVCAR-3
  CC50: > 100 µM
OVCAR-4
  CC50: > 100 µM
OVCAR-5 [18]
  CC50: 49.1 µM
RXF 393 [19]
  CC50: 7.61 µM
PC-3
  CC50: > 100 µM
[20]
  inhibition of growth at 10 µM: > 100%
